# Some of the results follow.
# Test system: PfSIP2 AP2 domain 1 (GST-tagged)
# Assay: gcPBM binding intensity (ln(normalized median fluorescence intensity)); higher = stronger DNA binding
# Summary of the method: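 Binding intensity values are the highest Masliner-normalised natural-log median intensity among replicate spots of either probe orientation. The binding step lasted 1 h in 1× PBS with 1% milk, 0.2 mg/ml BSA, 0.5% salmon testes DNA and 0.03% Triton X-100, using GST-tagged P. falciparum DNA-binding domains expressed in E. coli on an Agilent 4 × 180k array of primer-extended double-stranded 36-bp intergenic genomic probes plus negative controls. Alexa488 anti-GST antibody and a 488 nm scan detected bound protein.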
row,Sequence,gcPBM binding intensity (ln)
1,AAATGTGAAAAAGAGTGTACCCGACTTGAAATTAAG [XGTACX_site8621],7.25
2,AGTAGAATATCCCCTACACACCCAAGTAATTTACAA [CACACA_site6708],7.09
3,AATTAAAAGTGAAGAGTGCATAGAATTTTTTACTTT [GTGCAC_site9973],8.35
4,TTTAATTTTCAATGGCGTACATATAAAATATTATAT [XGTACX_site1672],7.43
5,GATGAATAATATGTATGTACATATGCATTATGATGT [XGTACX_site7655],7.43
6,ATATGCACTTTTTGCACACGTATGAATAACAAAATA [CACACA_site1810],9.53
7,ACATATAGATAAATATGTACATATATATATATATAT [XGTACX_site1806],9.36
8,TTTTCTGTGTTTACATGTACGAAAGATTAATATTAT [XGTACX_site5214],7.13
9,ATTTGATAGACACATGCACACATGCAATACTTTATT [CACACA_site5633],8.13
10,TTATCATATCATGGAAGTACAAATAAAATATATAAC [XGTACX_site1608],7.24
11,TACATACATACATACACACACATATAGATTTATATA [CACACA_site6999],7.82
12,TATATAAAAATATACACACACAAATGTATATATATA [CACACA_site220],8.08
13,ATATATATATATATATCACACATTAATAATATATAT [CACACA_site5081],9.16
14,ATAATTTTGTATAATTGTACATTATTTTAAATAAAT [XGTACX_site7952],6.78
15,AAAACATAACATTGTTGTACTACTAATAAAATAAGT [XGTACX_site6149],7.34
16,TCTTTATTATTCGCCACACACATATAAATATAAATA [CACACA_site7441],7.84
17,TTTTTTTTTTTTTTTAAACACACGGTGTGAAAATTA [CACACA_site3818],7.02
18,ATCAATCATGGTTTTACACACACATGCATGTGAAAA [CACACA_site1350],7.05
19,ATAATTACATTCCATACACACATATATTTAAAGGTT [CACACA_site7403],7.1
20,TTCTTGTTCCTGAAAGTGCATATAACAAAAATAACA [GTGCAC_site9635],9.52
21,AATGATATATTTAAATGTACACATGAAATATAATAT [XGTACX_site2678],7.06
22,TTATATTTGATAGTTTGTACATATAATTATTATCAT [XGTACX_site5676],7.21
23,TATCTTCAAGTATGTACACACTATATATAATAAAAT [CACACA_site5368],7.27

row,Sequence,gcPBM binding intensity (ln)
1,ATATATATATATATATGTACATACAATTATATTCTC [XGTACX_site1133],9.67
2,AATCTTCTTAATTGTAGTACACAATTTATAAACAAA [XGTACX_site8706],7.6
3,AAAAATCATTTAAGAACACACAAATATTTCCATTAA [CACACA_site1488],6.74
4,TACATAAATTTTAATACATGCAAATAAAATATATAA [TGCATGCA_site131],6.94
5,ATAACGAACACTATTACACACATACATACATATGTA [CACACA_site5092],7.33
6,AAAAAAAAAAAAAACACACACACATAGACCTCCAAT [CACACA_site3563],7.35
7,TTTTTTGTTACAACAGTGCAAAAAAACCTTAATGTT,7.84
8,ATAAAAAATATCACATAAAATAAAAAAAGAAAGGAT [XGTACX_negctrl_site294],7.15
9,TATATATATACAGTAGTGCATATATTTAAAATATAT [GTGCAC_site9999],8.9
10,TATATATAAAAATATACACACTGTATTATTGTAATA [CACACA_site5959],6.9
11,ATATATAAAAATAAATGTACATATTCATATGATGAT [XGTACX_site3411],7.04
12,TATATACATACATATTGTACTTATAAAGATTAATTT [XGTACX_site2203],7.12
13,ATATAAGTATATCTATGTACATACAATATAAATGTA [XGTACX_site2153],7.04
14,ATCAAAAGAAGACACACACACATACCTATAAATATA [CACACA_site7736],7.07
15,AATAGTTATTCCAGGTGTACATAACATATAATTTAC [XGTACX_site1340],7.44
16,TTATTATTATTACTTACGCACACTTTTTTTTTTATT [CACACA_site411],7
17,GACAATTATATGTAGGTGCATATACAAATTTTTTAA,10.9
18,ATAGGATATTATTCCTGTACATATATATATATATAT [XGTACX_site2108],8.94
19,TTTTATTCATCATATTGTACATTCTTGTATTTATAG [XGTACX_site8534],6.88
20,ATATACTTACATATTACACACAATATTTTTAAATGG [CACACA_site5916],6.95
21,CTTTTGCCCAAAAAGGTACACACCACAAAGTACATA [CACACA_site8169],7.13
22,TATTTATAATTAAATACACACATATATTATAGATTT [CACACA_site6435],6.88
23,TTGTATATACTATACACACACATACATACATACATA [CACACA_site814],7.21

row,Sequence,gcPBM binding intensity (ln)
1,ACCCATATTCTTTTTACACACTTGAATAAAAAATAT [CACACA_site4797],7.51
2,GAGATATAAAAGTGTACACATATTGTTATCCATATT [CACACA_site5441],7.11
3,AATAAAAAATAAAAAAGTACATGATGAAAAGGTTTA [XGTACX_site7615],6.97
4,TCCCTGATGTTATTTAATATACCATAAAAAAAAAAA [CACACA_negctrl_site1472],7.22
5,CACACTTTATAATGTTGTACGATACATTATACCAAA [XGTACX_site941],7.24
6,ATCTCAAATATAATAAATTATTAGGTATATATATAT [CACACA_negctrl_site1828],9.16
7,TATATATATATATATACATGCATACAATTTTATGAG [TGCATGCA_site466],9.83
8,TCTTGTTATAATAATCAATATATGGGTATACTTATG [CACACA_negctrl_site1618],6.9
9,AAAAGGATTTTTTATACACACACTAACTAATGTATA [CACACA_site2356],6.87
10,AAAAAAATAAATAAGACACACACAAAAAAAAAAAAA [CACACA_site8404],6.83
11,TAAATAATAATAAAATGTACATTATATATGTATATG [XGTACX_site8672],6.98
12,TTTTTTTTTTTTTTCTGTACTGATACTTATAGAGTT [XGTACX_site4736],7.01
13,AAATAATAAATATATCGTACAAATATCATATATAAA [XGTACX_site2771],6.79
14,TTTTTTCTTTTTATAACACACAGGTGAAAAATAATA [CACACA_site1850],7
15,TCCTGTTGAGAATGGCGTACATATAAATATTATATA [XGTACX_site1841],6.9
16,TTTCCTCATTTTATCATACACACTTGTTTATATGTG [CACACA_site8202],6.92
17,TATTACTTTATATATACACACATATAACATAAATGC [CACACA_site3948],7.26
18,CAGGTTCTTATATAGTGTACTATAGACATTCAATTG [XGTACX_site7239],6.94
19,CAAACAAATTGTGAAACACACATATATATATATATA [CACACA_site2001],9.59
20,AACGTATTATTTATCTGTACAAAATAATAACGTATT [XGTACX_site813],6.96
21,TTTTGTTTTTTCAATGTGCACTTAGGATGTTTTTAT [GTGCAC_site9565],10.6
22,TAAATAAAAATACAGTGTACTTTTTTCTATTTAAAA [XGTACX_site3288],7.5
23,ATCCAAATTAATAATAGTACTTTTAAGTCCTATGTA [XGTACX_site2452],6.65

row,Sequence,gcPBM binding intensity (ln)
1,TTGGAGTTCATATGTGGTACACATTTAAATATATTT [XGTACX_site5582],6.97
2,ATCATGGAAAAAACAAATGGGCTACATTACCTTTTG [GTGCAC_negctrl_site487],6.64
3,GATATAAACGTATATGTACATATATATATATATATA [GTGCAC_negctrl_site186],9.67
4,ATAATAAATGTCTTCAATGAAGTGGAAATGCTGTTA [TGCATGCA_negctrl_site238],6.95
5,ATATATACATAGAATTGTACATAATTTATGTTCATT [XGTACX_site7426],7.1
6,TATATACAAATATGTACACACATTACAGATGTACAT [CACACA_site6586],7.09
7,TAGAAAAAATAAAATAGTACACATCCAAAAAAAAAA [XGTACX_site7829],7.29
8,CCAAACAAAAAAAAAAGTACATAAAACACCTATTTG [XGTACX_site5645],7.13
9,AATATATAAATATATACACACAAAAACATATATATA [CACACA_site1318],7.39
10,ATAATTAGGGTGTATTTCATTTCATTTCATTTTATT [CACACA_negctrl_site1418],7.03
11,TAAGTAAAAAATTAAAAAGATTACAGGGGGGGAAGG [XGTACX_negctrl_site491],8.15
12,ATTTTAACGAATATATGTACATAAAAAAAAAAAAGA [XGTACX_site8750],7.25
13,GACATAAGATAATTACACATTGTTTCCTCAATAATA [CACACA_negctrl_site1616],7
14,TTTCTTTAATATATAGTGCATGTAAATTTTACAATA [GTGCAC_site9679],9.42
15,AAAAAAAAAAACAGTTGTACATTTATTTATATATTA [XGTACX_site217],6.96
16,AAAATAAGGACTGTTGTGCACTGGATTTGTGGTTAC [GTGCAC_site9830],10.1
17,AATTAATATTTAAATTGTACATGAACATTTTAATGT [XGTACX_site462],6.93
18,TAAATATTATTTATATGTACTGATATATTAAATAAA [XGTACX_site3446],6.74
19,AAAATAAAATTTACTTGTACTAAAGGGATACGCGCA [XGTACX_site1453],6.59
20,GTCACAAAATAAATTAAACACACAACATCATATATG [CACACA_site8182],7.11

# Source: the supplement of paper PMC11417369
